“And” between values parts separate entries of the source, which are not always exact repeats. Equal values may be shown once.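 Grown in 96-well plates, cells were treated for 48 hours with each compound at five concentrations. Insufficient inhibition: endpoint recorded as highest concentration tested. GI50 = concentration required for 50% inhibition of growth. At the TGI there is no net growth.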
Tested on: NCI-H322M lung
Test: growth of human tumour cells (NCI), 48 h

`CN(C)CCCNc1nc2ccccc2c2c(=O)c3cc(F)ccc3sc12` gave a GI50 of 1.6 µM and a TGI of 2.99 µM.
In the case of `CN(c1ccc(C(=O)O)cc1)c1cc(O/N=[N+](\[O-])N(C)C)c([N+](=O)[O-])cc1[N+](=O)[O-]`, the GI50 is reported as 15.5 µM and the TGI is reported as 29.4 µM.
`CCOC(=O)[C@]12C3C=CC(C3)C1C(=O)C1OC12` (stereo partly drawn) was tested, and the TGI was over 100 µM.
Molecule `COC(=O)[C@]1(C)CC[C@]2(C)CC[C@]3(C)C4[C@H]5Oc6c(cc7c(c6C)CCC6[C@@]7(C)CC[C@@]7(C)C8[C@](C)(CCC[C@@]8(C)C(=O)OC)CC[C@]67C)O[C@H]5c5c(cc6c(c5C)O[C@@]5(C)C7=CC=C8[C@@](C)(CC[C@@]9(C)[C@@H]%10C[C@](C)(C(=O)OC)CC[C@]%10(C)CC[C@]89C)C7=CC(=O)[C@@]5(O)O6)[C@]4(C)CC[C@@]3(C)C2C1` (stereo partly drawn) has a TGI of over 12.5 µM.
Work on `CCCCCCCCCCCCC(=O)CCCCC(=O)O` yielded a TGI of 37.6 µM.
`CO[C@@H](C)Cn1c(=O)n(C)c2cnc3ccc(-c4cncc(C(C)(C)O)c4)cc3c21` was tested, and the GI50 was 0.112 µM and 0.0748 µM and the TGI was 1.61 µM and 2.08 µM.
`Cc1ccc(N=Nc2c(C)nn(-c3ccccc3)c2C)c(Br)c1` showed a TGI of over 100 µM.
`Cc1cc(C)nc(NS(=O)(=O)c2ccc(NC(=O)c3cccc4c(Nc5ccc(S(=O)(=O)N=C(N)N)cc5)c5ccccc5nc34)cc2)n1` showed a TGI of 93.6 µM.
In the case of `O=C(CCCBr)Nc1ccccc1C#C/C=C\C#Cc1ccccc1C(F)(F)F`, the GI50 is reported as 21.3 µM and the TGI is reported as over 50 µM.
In the case of `N#CNC1=NC(Cc2ccccc2)C(=O)N1CCc1c[nH]c2ccccc12` (stereo not drawn), the TGI is reported as over 100 µM.
With `CN(C)CCNc1c2c(c(NCCN(C)C)c3c(CN(C)C)c[nH]c13)C(=O)c1ccccc1C2=O` the GI50 was 2.97 µM and the TGI was 10.3 µM.
In the case of `Cn1c(C2CCCc3c2c2ccccc2n3C)cc2ccccc21` (stereo not drawn), the TGI is reported as over 318 µM.
`CC(C#N)NCc1ccc(C(C)NC(C)C#N)cc1` (stereo not drawn) was tested, and the TGI was over 100 µM.
`C=CCN1C(=O)CNC1=S` gave a TGI of over 100 µM.
`[O-][n+]1c(-c2ccccc2)oc2ccccc21` gave a TGI of 29.7 µM.
With `CN(C)c1ccc(C2C(Cl)C(=O)N2NC(=O)c2c(Cl)c(Cl)c(Cl)c(Cl)c2-c2nc3ccccc3[nH]2)cc1` (stereo not drawn) the TGI was over 100 µM.
Molecule `Cc1ccc(-c2cc(=O)c3cc4c(cc3[nH]2)OCO4)cc1` has a TGI of over 100 µM.
Work on `Clc1ccc(Cc2nc3cc(Cl)c(Cl)cc3n2CC2CCCN3CCCCC23)cc1Cl` (stereo not drawn) yielded a TGI of 15.8 µM.
`Cc1cn(CC2=NCC(O)CN2)c(=O)[nH]c1=O` (stereo not drawn) was tested, and the TGI was over 100 µM.
With `CN1CCN(CCCNN)CC1` the TGI was over 100 µM.
With `C=CC(O)(CBr)CCC(Br)C(C)(C)Cl` (stereo not drawn) the TGI was over 10 µM.
Work on `O=c1[nH]c2cc([N+](=O)[O-])ccc2nc1/C(=N/Nc1ccccc1)C(O)c1ccc(Cl)cc1Cl` (stereo not drawn) yielded a TGI of over 100 µM.
For `Oc1ccc(OCCOc2ccc(O)cc2)cc1`, the GI50 was 46.2 µM and the TGI was over 100 µM.
`O=C(CCC(=O)Nc1ccc(Cl)c(Cl)c1)CC(=O)c1ccc(Cl)cc1` showed a TGI of over 100 µM.
`N#Cc1cc(-c2ccnc(Nc3ccc(NC(=O)CCl)cc3)n2)ccc1N1CCCC1` gave a GI50 of 6.47 µM and a TGI of over 25 µM.
In the case of `COc1cc(C(=O)/C=C/c2c(-c3cccs3)nc3sccn23)cc(OC)c1OC`, the GI50 is reported as 3.35 µM and the TGI is reported as 86.8 µM.
For `CCOC(=O)C1=C(C#N)S(=O)(=O)c2c(oc(C)c2C)N1`, the TGI was over 100 µM.
For `COc1cccc2c1C(=O)c1c(O)c3c(c(O)c1C2=O)C[C@@](O)(C(=O)CO)C[C@@H]3OC1CC(N(C)C)C(O)C(C)O1` (stereo partly drawn), the TGI was 0.303 µM.
`NCCCNC(=O)c1csc(NC(=O)c2csc(NC(=O)CCCN)n2)n1` gave a TGI of over 100 µM.
`COC(=O)C1=CC(=O)OC1(OO)c1ccc(Br)cc1` (stereo not drawn) gave a TGI of over 100 µM.
Work on `COc1cc(C(=O)Nc2cccc3ccccc23)c(Br)c(OC)c1OC` yielded a TGI of over 100 µM.
For `FC(F)(F)c1cccc(C=NC23CC4CC(CC(C4)C2)C3)c1`, the TGI was over 100 µM.
Molecule `Cc1cccc(C)c1NC(=O)CCC(=O)NNc1nnc(C)n1N` has a TGI of over 100 µM.
For `CN1N(c2ccccc2)C(=O)C2=NC=C(C(=O)c3ccccc3)C(=N)C21C` (stereo not drawn), the TGI was over 100 µM.
Molecule `COC(=O)N/N=C(/CC1(O)C(=O)Nc2ccc([N+](=O)[O-])cc21)c1ccccc1` (stereo not drawn) has a TGI of over 100 µM.
For `O=C1C(=O)/C(=C/c2ccccc2)CCCCCC/C1=C/c1ccccc1`, the GI50 was 16 µM and the TGI was 46.7 µM.
With `CN(C)CCNC(=O)c1cccc2nc3c(ccc4ccccc43)nc12` the TGI was 11.7 µM.
`COc1cccc(-c2nnc3c(-c4ccccc4)nc4ccccc4n23)c1` gave a TGI of over 100 µM.
With `O=c1c(Nc2ccccc2)cn(CCOc2ccccc2)c(=O)n1CCOc1ccccc1` the TGI was over 100 µM.
